Each structure is given as a SMILES string. In all, about 110,000 compounds were measured (“z-score”: median about -0.1, highest 2% from about 2 on). The list shows a part of the results.

The target in the experiment is Metabotropic glutamate receptor 8 (Rattus norvegicus) (UniProt P70579). In words: mGluR8 Gi/Go-coupled signaling modulation – cell-based, rat, thallium flux, HTS, primary screen (AID 488969). To be noted: HEK293 rat mGluR8, GIRK (G protein-gated inwardly rectifying potassium channel) thallium flux, FluoZin2; at 10 µM; stronger effect = higher value; submaximal glutamate (EC20) added with thallium.
UniProt P70579, sequence (P70579 whole entry, looked up): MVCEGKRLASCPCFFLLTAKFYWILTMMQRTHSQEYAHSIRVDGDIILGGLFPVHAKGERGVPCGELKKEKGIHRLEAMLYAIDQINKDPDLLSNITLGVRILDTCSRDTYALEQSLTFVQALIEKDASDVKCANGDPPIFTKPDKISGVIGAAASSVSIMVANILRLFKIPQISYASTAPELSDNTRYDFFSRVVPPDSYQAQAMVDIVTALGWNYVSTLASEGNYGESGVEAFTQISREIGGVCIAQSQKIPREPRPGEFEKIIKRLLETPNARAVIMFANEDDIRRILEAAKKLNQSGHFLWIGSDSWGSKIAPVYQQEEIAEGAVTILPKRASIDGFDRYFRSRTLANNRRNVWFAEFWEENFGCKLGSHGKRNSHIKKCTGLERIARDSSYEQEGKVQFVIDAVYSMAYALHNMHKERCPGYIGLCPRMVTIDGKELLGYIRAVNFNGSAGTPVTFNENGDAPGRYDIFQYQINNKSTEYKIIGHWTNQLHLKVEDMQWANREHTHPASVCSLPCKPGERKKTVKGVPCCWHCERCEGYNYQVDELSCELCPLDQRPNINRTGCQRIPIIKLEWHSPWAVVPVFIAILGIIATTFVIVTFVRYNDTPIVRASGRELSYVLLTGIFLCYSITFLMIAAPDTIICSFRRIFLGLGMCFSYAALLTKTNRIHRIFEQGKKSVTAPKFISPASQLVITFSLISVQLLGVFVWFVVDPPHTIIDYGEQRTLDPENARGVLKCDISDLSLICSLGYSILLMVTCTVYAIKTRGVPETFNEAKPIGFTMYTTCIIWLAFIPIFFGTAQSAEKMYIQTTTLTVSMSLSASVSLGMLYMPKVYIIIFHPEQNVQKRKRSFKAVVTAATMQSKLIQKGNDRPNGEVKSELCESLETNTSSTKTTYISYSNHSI
Turning to `O=c1c2ccccc2nc2n1C(CSCc1ccc(Cl)cc1)CS2` (centres undefined), the z-score was -0.757.
Next, `COc1cccc(C(=O)C2CN(c3ccccc3)CC2c2ccc(Cl)cc2)c1` (centres undefined): 0.0208; `CCOc1ccc(C2CC(c3cccc(OC)c3)Nc3nc(N)nn32)cc1` (centres undefined): 0.488; `Cc1ccc(-c2noc(C3CCCN(C(=O)c4ccc(F)cc4F)C3)n2)cc1` (centres undefined): -0.802.
With `CCOC(=O)C1=C(C)N(C)C(=O)NC1c1ccccc1OC` (centres undefined), the z-score amounted to 0.0572.
With `O=C1CCC(C(=O)O)(c2ccccc2)C1` (centres undefined) the figure was -0.0195.
As to `CC(=O)Oc1ccc(C(=O)[C@H]2[C@H]3C(=O)N(c4cccc5ccccc45)C(=O)[C@H]3[C@@H]3C=CC=NN32)cc1`, the z-score was found to be 1.24.
`COc1cccc(-n2c(Cc3cc(=O)[nH]c(=O)[nH]3)nnc2SCc2cccnc2)c1`: the z-score amounted to 0.187.
The molecule `Cc1ccc(-c2noc(CCC(=O)Nc3ccccc3N3CCN(C)CC3)n2)cc1` yielded a z-score of 1.14.
On to `O=C(C(Cc1ccccc1)N1C(=O)C2C3C=CC(C3)C2C1=O)N1CCCCC1` (centres undefined), for which the z-score was -0.174.
As to `COCCNC(=O)C1c2ccccc2C(=O)N(CCOC)C1c1ccc(F)cc1` (centres undefined), the z-score is 0.14.
With `Cc1sc2nc(CSCC(=O)N(C)c3ccccc3)[nH]c(=O)c2c1C` the figure was -0.125; with `CCCS(=O)(=O)N1CCCC(c2nc(-c3ccc(OC)cc3)no2)C1` (centres undefined), 0.0798; with `O=C(NC1CCCCC1)C(c1ccccc1)N(C(=O)Cc1ccsc1)c1ccccc1` (centres undefined), -0.0429.
In turn, `Cc1cccc(/C(N)=N/OC(=O)N2c3ccccc3Sc3ccccc32)c1` had a z-score of -0.461.
In turn, `Cc1[nH]nc(SCC(=O)NCc2ccc(F)cc2)c1[N+](=O)[O-]` showed a z-score of -0.231.
With `CSCCOC(=O)C1=C(C)NC(=O)CC1c1ccccc1Cl` (centres undefined), the z-score is -1.78.
Regarding `O=C(CCCC(=O)OCC1CCCO1)OCC1CCCO1` (centres undefined), the z-score was found to be 0.152.
Next, `O=C(O)CCCCCN1C(=O)c2ccc(C(=O)O)cc2C1=O`: -0.139; `COc1ccc(C)cc1NC(=O)CSc1nnc(COc2ccc(C)cc2)n1Cc1ccco1`: -0.283; `CCOC(=O)N1CCC(NC2CCCCCCC2)CC1`: 0.469.
Next, `CSCCC(NS(=O)(=O)c1ccc2ccccc2c1)C(=O)OCC(=O)c1ccc(C(C)C)cc1` (centres undefined): 0.133; `CCc1nnc(NC(=O)C2CCCN(c3nc(C)cc(C)n3)C2)s1` (centres undefined): 0.0266.
Consider `Cc1onc(-c2ccccc2Cl)c1C(=O)NCc1ccc(S(N)(=O)=O)cc1`, for which the z-score was 0.118.
Take `CCOC(=O)Nc1sc2c(c1C(=O)OCC)CCC2`: the z-score was 0.418.
Molecule `Cc1oc2ccc(O)c(CN3CCOCC3)c2c1C(C)O` (centres undefined) came in with a z-score of -0.147.
Next, `CC(=O)NC1=NN(c2ccccc2)C(=O)C1`: 0.0492; `COc1cc2c(cc1OC)CN(S(C)(=O)=O)CC2`: 0.0161; `COc1ccc(OC)c(S(=O)(=O)NC2CCCCC2)c1`: 0.263.
Molecule `O=C(N1CCOCC1)N1CCN(c2nc(-c3ccccc3)cs2)CC1` came in with a z-score of 0.418.
`CCOc1ccc(C2N(c3ccc(OC)cc3)C(=O)C3CCCN32)cc1OC` (centres undefined): the z-score was 0.63.
The molecule `CCOC(=O)C(=CNc1cccc(C)n1)C(=O)OCC` showed a z-score of -0.58.
`COC(=O)c1c(S(=O)(=O)NCc2ccccc2)sc(C(=O)O)c1C` showed a z-score of -0.417.
With `CCN1CCn2c3c(c4cc(Br)ccc42)CCCC31` (centres undefined), the z-score is -0.882.
Consider `C#CCn1c(=NC(=O)c2cccs2)sc2cccc(OCC)c21`, for which the z-score worked out at 0.199.
In the case of `CCc1nc(N2CCOCC2)c(C#N)c2c1CCCC2`, the z-score is -1.43.
Next, `CS/C(=N\S(=O)(=O)c1cccs1)Nc1ccc(F)cc1`: 1.49; `O=C(NCc1nc(-c2ccccc2)no1)c1ccc(Br)o1`: -0.168; `O=C(CCc1ccc(S(=O)(=O)NCCc2ccccc2)cc1)N1CCN(Cc2ccc3c(c2)OCO3)CC1`: -0.243.
For `O=C(COc1ncnc2ccccc12)Nc1cccc(S(=O)(=O)N2CCOCC2)c1`, the z-score is -0.18.
`CC(C)Cc1nnc(NS(C)(=O)=O)s1` yielded a z-score of 0.0252.
The molecule `COc1ccc(CNCc2ccco2)cc1OCc1ccccc1` came in with a z-score of 0.176.
`CC1(C)CC(CCN(Cc2ccccc2)C(=O)c2ccco2)(c2ccccc2)CCO1` (centres undefined) returned a z-score of 0.0289.
With `Cc1nc(NC(=O)c2ccccc2)sc1-c1csc(Nc2cccc(F)c2)n1` the figure was -0.0632.
With `Cc1cc(N2CCCC2=O)cc(C)c1S(=O)(=O)NCCOc1ccc(C(C)(C)C)cc1` the figure was -0.292; with `Cc1nnc(N2CCN(C)CC2)c2nn(-c3ccc(Cl)cc3)c(C)c12`, -0.299; with `O=C(C1CCN(S(=O)(=O)c2cccc3cccnc23)CC1)N1CCn2c1nc1ccccc12`, -0.522.
`CSc1cc(-c2ccccc2)n(Cc2ccc(Cl)cc2Cl)c(=O)c1C#N` showed a z-score of 0.0211.
Next, `CC(OC(=O)C(C)N1C(=O)C2C3C=CC(C4CC34)C2C1=O)C(=O)c1ccccc1` (centres undefined): -0.0805; `COc1ccc(C2(C(=O)NCCCN3CCOCC3)CCOCC2)cc1`: -0.278.
Next, `CCCCNC(=O)CC1N=C2c3ccccc3N=C(SCC(=O)Nc3ccccc3OC)N2C1=O` (centres undefined): -0.316; `CCCCN1C(=O)C(NC(=O)c2cccnc2)(C(F)(F)F)C2=C1CC(C)(C)CC2=O` (centres undefined): 0.0778; `O=C1c2ccccc2NC2CCCCC12` (centres undefined): -0.175.
Consider `COCCn1c(=NC(=O)c2sc3ccccc3c2Cl)sc2cc(S(N)(=O)=O)ccc21`, for which the z-score was -0.436.
For `CCOc1ccc(NC(=O)CSc2nnc(CCNC(=O)c3ccc(OC)cc3)n2C)cc1`, the z-score is -0.146.
`CCOC(=O)c1sc(/N=C/N(C)C)nc1C` yielded a z-score of -0.0764.
`N#CC1=C(N)N(c2ccccc2)C(c2ccccc2)C1(C#N)C#N` (centres undefined) registered a z-score of -0.311.
In turn, `COc1cccc(-c2nc3n(n2)C(c2ccccc2Cl)C(C(N)=O)=C(C)N3)c1` (centres undefined) returned a z-score of 1.07.
`CCCSc1nnc2n(-c3ccccc3OC)c(=O)c3c4c(sc3n12)CCC4` had a z-score of -1.87.
Next, `Cc1ccc(Cn2c(CN3CC(C)OC(C)C3)nc3c2c(=O)n(C)c(=O)n3C)cc1` (centres undefined): -0.564.
`CCc1nc(NCC(C)C)c(C#N)c2c1COC(C)(C)C2` returned a z-score of -0.103.
Take `Nn1cc(-c2ccccc2)nc1SCC(=O)Nc1ccc2c(c1)OCO2`: the z-score is -0.105.
Molecule `CCCc1cc(=O)oc2cc(OCC(=O)OC)cc(OCC(=O)OC)c12` gave a z-score of -0.342.
Molecule `N#Cc1cc2c(=O)n3ccccc3nc2n(Cc2ccco2)c1=NC(=O)c1ccco1` came in with a z-score of -0.248.
Next, `Cc1cc(C)n2nnnc2c1C#N`: 0.205; `CCC(C)c1ccccc1OCCOCCN1CCCC1` (centres undefined): 0.0652; `Nc1c(-c2ccccc2)c(CSc2nc3ccccc3[nH]2)nn1-c1cccc(Cl)c1`: -1.09.
`Cc1ccc(-c2nn(CC(=O)NCC3CCCO3)c(=O)c3ccccc23)cc1` (centres undefined) registered a z-score of -0.157.
In turn, `CC(C)c1ccc(C2C(C#N)=C(N)N3C(=C2C#N)Sc2ccccc23)cc1` (centres undefined) returned a z-score of 0.0725.

Values taken from PubChem BioAssay AID488969 (Vanderbilt High Throughput Screening Facility, 2010).
